Experimental data published in PubChem BioAssay AID463173 (ICCB-Longwood Screening Facility, Harvard Medical School, 2010).
The whole screen tested about 52,000 compounds, of which about 1,700 (3.3%) were called active. Rule as the data show it: active = survival mostly below about 52% (no sharp cut-off); inactive = mostly above about 56%. The list shows a part of the results.

The compounds below were run on Wild type (assay: growth inhibition of S. aureus wild type versus tarO mutant, primary screen, teichoic acid synthesis inhibitors, RN4220, OD600 (AID 463173)). Settings: S. aureus RN4220 wild type/DeltatarO growth, OD600, 18 h, hits give low values, screened at 18.75 µg/mL (by protocol).

SMILES | survival
CCN1C(=O)N(C)C2C1N(C)C(=O)N2CC (stereo not given) | inactive: 105%
Cc1cc(C)c(NC(=O)CCn2nnc3ccccc32)c(C)c1 | inactive: 100%
O=S(=O)(c1cccs1)N1CCN(c2ccc(Cl)cc2)CC1 | inactive: 74%
COC(=O)c1cc(NC(=O)CN(c2ccccc2)S(=O)(=O)N(C)C)ccc1Cl | inactive: 77%
CCN1CCN(C(=O)c2ccc3c(c2)N(Cc2cc(C)ccc2C)C(=O)c2ccccc2S3=O)CC1 (stereo not given) | inactive: 98%
COc1ccc(NC(=O)Cn2cc(C(=O)C3CC3)c3ccccc32)cc1 | inactive: 91%
CCOc1ccccc1NC(=O)Cn1nnc2sc3c(c2c1=O)CCC(C(C)(C)C)C3 (stereo not given) | inactive: 119%
NS(=O)(=O)c1ccc(CCNc2nc3c(-c4cccc(F)c4)nnn3c3ccc(Cl)cc23)cc1 | inactive: 71%
CCCCN(CCCC)S(=O)(=O)c1ccc2oc(C(=O)NCc3ccccc3)c(C)c2c1 | inactive: 73%
CCOC(=O)c1c(C)oc2c(Cl)cc(NS(=O)(=O)c3ccc(Cl)c(C)c3)cc12 | inactive: 54%
Cc1ccc(CSc2nc3ccc(NC(=O)COc4ccccc4F)cc3s2)cc1 | inactive: 98%
CCN(CC)CCCNC(=O)Cn1c(-c2cccs2)cc2cc(Cl)ccc21 | inactive: 68%
O=C(CCCCn1c(=O)[nH]c2ccsc2c1=O)N1CCN(c2cccc(Cl)c2)CC1 | inactive: 91%
CCOC(=O)c1c(C)[nH]c(C)c1S(=O)(=O)N(C)CC(=O)N1CCN(c2ccccc2OC)CC1 | inactive: 131%
CCOC(=O)N1CCN(C(=O)CN(c2ccc(C)cc2C)S(=O)(=O)c2ccccc2)CC1 | inactive: 69%
O=C(CN1C(=O)C2(SCC(=O)N2c2cccc(Cl)c2)c2ccccc21)NC1CCCCC1 (stereo not given) | inactive: 91%
Cc1cc(C)c(/C=C/c2onc(C)c2S(=O)(=O)N2CCC(C(=O)NCc3ccco3)CC2)c(C)c1 | inactive: 72%
Cc1nn(CC(=O)N2CCN(c3ccccc3)CC2)c(=O)c2cccn12 | inactive: 87%
CCOCCN1CCN(c2c3c(nc4cc(-c5cccc(C)c5)nn24)CCC3)CC1 | inactive: 118%
O=C(CNS(=O)(=O)c1ccc(Br)s1)N1CCN(c2ccccc2F)CC1 | inactive: 72%
Cc1ccc(-c2nc3c(cnn3-c3ccccc3)c(=O)n2-c2ccc(Cl)cc2)cc1 | inactive: 70%
O=C(COCc1cc(-c2ccco2)on1)Nc1ccc(OC(F)(F)F)cc1 | inactive: 101%
COc1cccc(OC)c1C(=O)Nc1ccc2c(c1)CCCN2S(=O)(=O)c1ccc(C)cc1 | inactive: 93%
CCc1nn(CC(=O)NCc2cccc(OC)c2)c(=O)c2cc3cc(F)ccc3n12 | inactive: 69%
Cc1oc(-c2ccc(Cl)cc2)nc1Cn1c(=O)cc(-c2ccccc2)c2c(C)nn(C)c21 | inactive: 85%
c1ccc(NCc2cccnc2)cc1 | inactive: 107%
Cc1ccc(-n2ncc3c(NCCC4=CCCCC4)ncnc32)cc1C | inactive: 131%
CCc1ccc(NC(=O)c2ccc(CN3C(=O)C(C)=C(c4ccc(C)cc4)S3(=O)=O)cc2)cc1 | inactive: 84%

SMILES | survival
O=C(O)CCC(=O)Nc1cccc(C(=O)N2CCCCC2)c1 | inactive: 105%
COc1ccc(-c2onc(C)c2C)cc1S(=O)(=O)N1CCC(C)CC1 | inactive: 81%
CSc1nc2c([nH]c3ccccc32)c(=O)n1-c1ccc(F)cc1 | inactive: 113%
COc1cccc(-c2nc(C(N)=O)c3c(n2)n(-c2ccc4c(c2)OCO4)c(=O)n3C)c1OC | inactive: 87%
Cn1c(C(=O)NCc2cccc(F)c2)cc2cc(S(=O)(=O)N3CCCCC3)ccc21 | inactive: 71%
CCOc1ccccc1NC(=O)CSc1cc(=O)n(CC)c2ccccc12 | inactive: 97%
O=C(Cn1cc(S(=O)(=O)Cc2ccc(F)cc2)c2ccccc21)NCc1ccccc1 | inactive: 68%
COc1ccccc1CCNC(=O)c1cccn1-c1nnc(N2CCCCC2)s1 | inactive: 87%
OC(c1ccc(Br)cc1)C12CN3CN(CN(C3)C1)C2 (stereo not given) | inactive: 106%
CC(=O)c1cc(-c2ccccc2)n(CCC(=O)Nc2cc(C)cc(C)c2)c1C | inactive: 110%
CCOc1ccc(-c2cc(C(F)(F)F)c(C#N)c(SCC(=O)Nc3ccccc3)n2)cc1 | inactive: 60%
CCCNC(=O)CN1C(=O)c2cccnc2Sc2ccccc21 | inactive: 55%
Cc1cccc(NC(=O)CSc2nc(C)c(Cc3ccccc3)c(=O)[nH]2)c1 | inactive: 39%
CSc1nnc(-c2cc3ccccc3cc2O)n1C | inactive: 111%
O=C(NCc1ccco1)C(c1ccccc1)N(CCc1ccccc1)C(=O)Cn1nnc2ccccc21 (stereo not given) | inactive: 111%
CCOc1ccc2[nH]c(=O)c(CN(CCc3ccccc3)C(=O)N(C)C)cc2c1 | inactive: 105%
COc1ccccc1N1CCN(C(=O)c2c3c(nc4ccccc24)C(=O)N(C2CCCCC2)C3)CC1 | inactive: 87%
Cc1ccc(C)c(N2CCN(C(=O)c3c4c(nc5ccccc35)C(=O)N(C3CCCCC3)C4)CC2)c1 | inactive: 95%
COc1ccc(-c2nc(CNS(=O)(=O)c3ccc(F)cc3)cs2)cc1 | inactive: 123%
CCCOc1cccc(C(=O)Nc2ccc(-c3nc4ccccc4o3)cc2)c1 | inactive: 75%
O=C(CSc1nc2c(c(=O)[nH]1)CN(Cc1ccc3c(c1)OCO3)CC2)Nc1ccc(F)cc1 | inactive: 81%
CCC(C)NC(=O)c1sc2nc(C)c(C(=O)Nc3ccc(Cl)cc3)c(-c3ccc(Br)cc3)c2c1N (stereo not given) | inactive: 106%
COc1cc(OC)cc(-n2c(=O)c3ccccc3n(CC(=O)NCCc3ccc(OC)c(OC)c3)c2=O)c1 | inactive: 77%
COc1ccc2cc(CNc3ccc(OC)c(OC)c3)c(=O)n(CC(=O)Nc3ccc(C)cc3)c2c1 | inactive: 71%
COc1cc(C(=O)Nc2ccc(OCc3cc(=O)n4cc(C)sc4n3)cc2)cc(OC)c1OC | inactive: 125%
O=C(NCCc1ccccc1)c1c[nH]c2ccc(S(=O)(=O)Nc3ccccc3F)cc2c1=O | inactive: 68%
Oc1cccc(C(=S)N2CCCCC2)c1 | inactive: 98%
